The target of assay [1] is SORLA F2172 to A mutant (mutation in the FANSHY motif) (human) (UniProt Q92673). The assay is described as follows: co-IP; HEK293 cells co-expressing the tagged proteins; IP with a Myc antibody; IP buffer 10 mM Tris, 1% NP-40, 10% glycerol, 5 mM EDTA, 5 mM EGTA, pH 7.6; some cells treated with dibutyryl-cAMP or PMA or co-expressing PKCι/λ-A120E.
Assay [2] concerns the target Myc-tagged human SORLA (pCMV6-Entry-SORL1) (human) (UniProt Q92673). The description is as above.
Assay [3] addresses endogenous SORLA of human prefrontal cortex (human (endogenous in prefrontal cortex)) (UniProt Q92673). As to the kind of experiment: co-IP; human postmortem prefrontal cortex lysates (control and AD); IP with a mouse anti-SORLA antibody (BD Biosciences), protein G beads; 10 mM Tris pH 7.6, 10% glycerol, 1% Nonidet P-40, 5 mM EDTA, 5 mM EGTA.
For assay [4], the target named is endogenous SORLA of mouse brain (mouse (endogenous in cerebral cortex)) (UniProt O88307). The assay is described as follows: co-IP; mouse cortical lysates (WT, Arrb2-/-, AppKI; vehicle, Go6976, CRT0066854 or auranofin treatment); IP with an anti-SORLA antibody, protein G beads; 10 mM Tris pH 7.6, 10% glycerol, 0.5% Nonidet P-40, 5 mM EDTA, 5 mM EGTA.
In assay [5] the target is GST-fused βARR2 (UniProt P32121). As to the kind of experiment: pull-down; GST fusion proteins on glutathione-conjugated agarose beads incubated with in vitro translated, biotinylated-lysine-labeled SORLA-C; bound probe detected colorimetrically after SDS-PAGE; only the target purified.
Assay [6] has as its target GST-SMAD2 (UniProt Q15796). The assay is described as above.

Chains of the proteins cited; added tags and fusions are not shown. Residues count along the entry.
UniProt O88307, residues 82-2215: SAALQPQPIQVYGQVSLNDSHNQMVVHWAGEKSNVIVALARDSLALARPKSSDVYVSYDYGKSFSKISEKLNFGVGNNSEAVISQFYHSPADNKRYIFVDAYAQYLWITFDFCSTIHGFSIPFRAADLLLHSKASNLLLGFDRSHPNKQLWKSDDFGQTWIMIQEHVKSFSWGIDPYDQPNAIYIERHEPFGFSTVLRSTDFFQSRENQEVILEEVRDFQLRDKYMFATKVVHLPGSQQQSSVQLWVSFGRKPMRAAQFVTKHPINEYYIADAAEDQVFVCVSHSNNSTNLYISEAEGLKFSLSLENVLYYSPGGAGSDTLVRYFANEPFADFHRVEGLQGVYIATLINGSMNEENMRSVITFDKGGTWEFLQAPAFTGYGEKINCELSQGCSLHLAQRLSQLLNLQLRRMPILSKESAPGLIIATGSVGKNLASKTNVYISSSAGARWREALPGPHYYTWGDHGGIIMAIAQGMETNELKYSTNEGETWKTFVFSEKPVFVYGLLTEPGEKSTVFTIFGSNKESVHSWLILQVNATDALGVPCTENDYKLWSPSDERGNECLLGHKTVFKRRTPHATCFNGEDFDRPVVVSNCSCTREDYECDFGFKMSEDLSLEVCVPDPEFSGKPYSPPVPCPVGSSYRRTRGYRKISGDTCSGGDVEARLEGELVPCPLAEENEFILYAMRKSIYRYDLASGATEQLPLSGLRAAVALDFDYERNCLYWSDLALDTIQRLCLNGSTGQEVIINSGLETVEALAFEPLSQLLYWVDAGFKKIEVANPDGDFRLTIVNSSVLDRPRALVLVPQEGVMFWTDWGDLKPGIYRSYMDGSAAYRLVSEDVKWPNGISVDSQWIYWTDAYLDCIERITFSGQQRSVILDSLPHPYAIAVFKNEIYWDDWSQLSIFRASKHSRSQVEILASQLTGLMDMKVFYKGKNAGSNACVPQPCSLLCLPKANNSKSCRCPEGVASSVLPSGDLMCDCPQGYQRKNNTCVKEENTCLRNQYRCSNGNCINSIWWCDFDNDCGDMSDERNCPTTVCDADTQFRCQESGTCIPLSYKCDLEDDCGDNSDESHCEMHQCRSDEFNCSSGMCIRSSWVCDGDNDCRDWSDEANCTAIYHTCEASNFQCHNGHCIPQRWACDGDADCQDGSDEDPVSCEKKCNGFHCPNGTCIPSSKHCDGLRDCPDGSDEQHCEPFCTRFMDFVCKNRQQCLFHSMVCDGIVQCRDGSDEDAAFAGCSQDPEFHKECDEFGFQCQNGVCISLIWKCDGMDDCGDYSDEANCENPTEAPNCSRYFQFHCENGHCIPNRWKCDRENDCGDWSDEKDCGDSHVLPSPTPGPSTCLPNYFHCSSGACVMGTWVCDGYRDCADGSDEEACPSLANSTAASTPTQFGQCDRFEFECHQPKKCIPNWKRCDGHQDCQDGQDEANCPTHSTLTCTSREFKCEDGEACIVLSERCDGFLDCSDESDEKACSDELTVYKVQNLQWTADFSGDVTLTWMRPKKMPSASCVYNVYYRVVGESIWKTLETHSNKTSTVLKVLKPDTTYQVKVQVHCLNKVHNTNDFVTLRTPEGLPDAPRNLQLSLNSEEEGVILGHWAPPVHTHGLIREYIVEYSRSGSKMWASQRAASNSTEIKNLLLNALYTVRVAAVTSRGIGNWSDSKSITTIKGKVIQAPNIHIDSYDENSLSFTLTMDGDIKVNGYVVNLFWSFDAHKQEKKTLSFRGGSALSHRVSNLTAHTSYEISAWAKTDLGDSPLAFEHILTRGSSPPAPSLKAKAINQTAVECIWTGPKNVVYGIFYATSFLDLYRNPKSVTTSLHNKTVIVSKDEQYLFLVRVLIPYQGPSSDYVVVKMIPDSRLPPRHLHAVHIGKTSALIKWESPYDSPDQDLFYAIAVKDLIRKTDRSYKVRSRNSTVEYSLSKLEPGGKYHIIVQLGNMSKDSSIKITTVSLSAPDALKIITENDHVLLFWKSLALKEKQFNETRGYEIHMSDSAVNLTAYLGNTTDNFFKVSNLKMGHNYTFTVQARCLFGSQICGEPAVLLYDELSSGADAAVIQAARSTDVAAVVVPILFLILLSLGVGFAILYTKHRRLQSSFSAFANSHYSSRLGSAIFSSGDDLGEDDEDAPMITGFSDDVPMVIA
UniProt Q15796: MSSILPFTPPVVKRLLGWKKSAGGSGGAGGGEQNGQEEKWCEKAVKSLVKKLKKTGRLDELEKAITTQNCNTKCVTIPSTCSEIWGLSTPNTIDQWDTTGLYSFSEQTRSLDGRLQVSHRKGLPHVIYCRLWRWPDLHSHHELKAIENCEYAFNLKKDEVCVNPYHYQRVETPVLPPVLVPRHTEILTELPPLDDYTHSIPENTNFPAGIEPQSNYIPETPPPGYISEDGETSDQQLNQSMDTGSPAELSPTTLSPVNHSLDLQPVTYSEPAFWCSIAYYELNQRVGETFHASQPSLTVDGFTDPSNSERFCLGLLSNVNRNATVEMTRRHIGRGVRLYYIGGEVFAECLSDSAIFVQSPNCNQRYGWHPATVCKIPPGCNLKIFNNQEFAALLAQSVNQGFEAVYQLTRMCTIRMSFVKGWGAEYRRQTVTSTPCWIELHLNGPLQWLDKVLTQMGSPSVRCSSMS

Results are given in words; binding and its absence hold for the method and conditions named. Binding seen in cells or lysates may run through a third protein. Some results given as binding are weak or reduced against the parent protein; the word gives no strength.

For “GFP-tagged βARR2 (β-arrestin2) (from UniProt P32121 1-409)”, the binding entry was “binds weakly” in assay [1] and “binds” in assay [2].

In the case of “endogenous βARR2 of human prefrontal cortex (from UniProt P32121 1-409)”, the binding entry in assay [3] is listed as “binds”.

In the case of “endogenous βARR2 of mouse brain (from UniProt Q91YI4 1-410)”, the binding entry in assay [4] was “binds”.

B1: SORLA-C (signal peptide a.a. 1-34 joined to the C terminal sequence a.a. 2111-2214 of SORLA) (domain or fragment, UniProt Q92673 1-34; Q92673 2111-2214)
chain: MATRSSRRESRLPFLFTLVALLPPGALCEVWTQRPAILLYDELGSGADASATQAARSTDVAAVVVPILFLILLSLGVGFAILYTKHRRLQSSFTAFANSHYSSRLGSAIFSSGDDLGEDDEDAPMITGFSDDVPMVIA
modifications: biotinylated lysine (Transcend tRNA) incorporated during in vitro translation
In the case of B1, the binding entry in assay [5] is listed as “binds”; in assay [6], “no binding”.

For the origin of these results see article PMC12186327.
